# From article PMC4336329 (PLoS ONE, 2015)
# In all, about 310,000 compounds went through this assay and about 2,200 (0.71%) showed an effect of 50% or more. Effects have a minus sign here. Some of the results follow.
# Target: human ether-à-go-go-related gene (hERG) potassium channel (human, UniProt Q12809)
# Assay: primary screen, population patch clamp on CHO cells stably expressing hERG
# Chain of human ether-à-go-go-related gene (hERG) potassium channel (Q12809 whole entry, looked up): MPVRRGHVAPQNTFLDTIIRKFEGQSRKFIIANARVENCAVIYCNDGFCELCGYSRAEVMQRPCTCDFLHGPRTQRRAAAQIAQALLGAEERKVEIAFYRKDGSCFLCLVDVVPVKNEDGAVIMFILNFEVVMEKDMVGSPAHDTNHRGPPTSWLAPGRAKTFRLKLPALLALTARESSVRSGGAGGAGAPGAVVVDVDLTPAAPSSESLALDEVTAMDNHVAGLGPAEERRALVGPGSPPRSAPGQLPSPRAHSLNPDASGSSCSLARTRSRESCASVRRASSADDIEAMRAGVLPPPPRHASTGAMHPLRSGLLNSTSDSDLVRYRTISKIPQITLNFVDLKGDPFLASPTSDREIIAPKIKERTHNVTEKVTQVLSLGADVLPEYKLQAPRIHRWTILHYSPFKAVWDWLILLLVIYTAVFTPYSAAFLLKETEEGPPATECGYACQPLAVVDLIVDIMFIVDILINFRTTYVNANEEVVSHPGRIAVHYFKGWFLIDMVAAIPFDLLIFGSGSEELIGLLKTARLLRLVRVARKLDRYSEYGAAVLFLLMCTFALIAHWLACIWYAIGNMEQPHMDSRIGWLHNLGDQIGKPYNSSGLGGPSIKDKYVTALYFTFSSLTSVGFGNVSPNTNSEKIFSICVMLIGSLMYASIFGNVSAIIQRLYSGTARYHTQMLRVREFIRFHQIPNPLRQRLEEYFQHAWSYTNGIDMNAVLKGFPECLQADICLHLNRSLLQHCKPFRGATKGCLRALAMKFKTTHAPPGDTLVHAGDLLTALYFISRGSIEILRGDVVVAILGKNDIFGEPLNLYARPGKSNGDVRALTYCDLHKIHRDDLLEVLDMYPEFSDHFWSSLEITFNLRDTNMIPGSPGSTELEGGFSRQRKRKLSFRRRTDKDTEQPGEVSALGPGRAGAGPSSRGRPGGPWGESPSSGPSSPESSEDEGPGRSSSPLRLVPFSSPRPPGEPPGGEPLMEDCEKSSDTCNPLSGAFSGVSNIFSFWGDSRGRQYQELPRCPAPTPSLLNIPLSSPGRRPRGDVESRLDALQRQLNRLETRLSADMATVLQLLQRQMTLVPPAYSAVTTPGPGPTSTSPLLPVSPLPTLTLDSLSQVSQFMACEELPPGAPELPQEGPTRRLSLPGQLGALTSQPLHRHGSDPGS
row,SMILES,"hERG current change (%, negative = inhibition) at 1uM [%]"
1,CSc1nnc(-c2cccs2)n1C,12.5
2,Cc1cccc(NS(=O)(=O)c2ccc(C(=O)N3CC(C)OC(C)C3)cc2)c1C (centres unmarked),19
3,CC1=C(C(=O)OCCCCCl)C(c2cc3c(cc2Br)OCO3)NC(=O)N1 (centres unmarked),24.6
4,Cc1cccc(CSc2nc3c(cc2C#N)CN(C)CC3)c1,-16.8
5,O=C(O)CC1CCCC(c2ccccc2)C1=O (centres unmarked),-0.549
6,COc1cccc(NC(=O)Cc2cccs2)c1,7.75
7,NC(=O)NCCCC(=O)NCC(c1ccccc1Cl)c1c[nH]c2ccccc12 (centres unmarked),18.3
8,COc1ccc(CCC(=O)NNC(=O)Nc2ccccc2Cl)cc1,11.3
9,Cc1cccc(OCCCc2c(C)n[nH]c2C)c1,6.19
10,N/C(=N\OC(=O)C(c1ccccc1)c1ccccc1)c1cccnc1,-1.93
11,O=C(NCCN1CCOCC1)c1ccc2c(c1)N(Cc1ccccc1)C(=O)CS2,12.9
12,CC(=O)c1ccc(NC(=O)C(C)N(C)CC(=O)Nc2ccc(N3CCOCC3)cc2)cc1 (centres unmarked),0.17
13,O=C(N/N=C/c1c(O)n(-c2ccccc2)c(=O)[nH]c1=O)c1ccncc1,20.1
14,Cc1c(NC(=O)CN2c3cccc4cccc(c34)S2(=O)=O)c(=O)n(-c2ccccc2)n1C,11.9
15,Cc1ccc2cc(C(c3nnnn3C3CCCC3)N(Cc3cccnc3)Cc3ccco3)c(=O)[nH]c2c1 (centres unmarked),-47.4
16,CCN1C(Nc2ccccc2)=NC[C@@H]1Cc1ccccc1,-0.914
17,OCC1(Cc2ccccc2F)CCCN(CCc2ccccc2)C1 (centres unmarked),-30.5
18,C[C@H]1[C@H](C)CC[C@]2(C)CC[C@]3(C)C(=CC(=O)C4[C@@]5(C)CC[C@H](O)C(C)(C)C5CC[C@]43C)[C@H]12 (some centres unmarked),17.4
19,Nc1ccc(S(=O)(=O)NCC(=O)OCCOc2ccccc2)cc1[N+](=O)[O-],7.24
20,COC(=O)CN1C(=O)[C@H]2[C@@H](c3ccc(C)o3)N3C(=O)CN(CCO)C(=O)[C@@]3(C)[C@H]2C1=O,7.16
21,CC1CN(Cc2ccc(Cl)cc2Cl)CC(C)O1 (centres unmarked),8.87
22,Fc1ccccc1CNc1ccc(Cl)cc1,12.8
23,COC(=O)COc1ccccc1C(=O)Nc1ccc(OC)cc1,-7.63

row,SMILES,"hERG current change (%, negative = inhibition) at 1uM [%]"
1,NS(=O)(=O)c1ccc(NC(=S)Nc2ccc(C(=O)N3CCCCC3)cc2)cc1,12.3
2,COc1cc(N/C(N)=N/c2nc(C)cc(C)n2)cc(OC)c1,-15.6
3,O=C(NCc1cccs1)C1CCCN1C(=O)Nc1ccc(F)cc1 (centres unmarked),15.2
4,COc1ccccc1Nc1nnc(C)c(=O)[nH]1,9.38
5,N#C/C(=C(\O)Cc1ccccc1)c1nc2ccccc2[nH]1,11.3
6,CC(C)(C)NC(=O)C1CC(=O)OC12CCCCC2 (centres unmarked),12.7
7,COc1ccc(CN2CCSCC2)c(C)c1C,17
8,CN1CCCN(C(=O)c2ccc(Br)cc2)CC1,17.5
9,CSc1nc(-c2ccccc2)c(C#N)c(=O)[nH]1,4.71
10,Cc1cc(-n2c(SCC(=O)Nc3ccc(Br)cc3)nc3n[nH]c(C)c3c2=N)ccc1Cl,9.65
11,O=C(N/N=C/c1c(Cl)nc2ccccn2c1=O)c1cccnc1,11.2
12,CC(NS(=O)(=O)c1ccc(Br)cc1)C(N)=O (centres unmarked),11.8
13,Cc1ccc(N2C(=O)NC(NC(=O)C3CC3)(C(F)(F)F)C2=O)cc1 (centres unmarked),2.87
14,CCc1cc2c(=O)c(-c3cnn(-c4ccccc4)c3)c(C)oc2cc1OCC(=O)Nc1cccc(C)c1,9.22
15,S=C1NC[C@H](CC2CCCCC2)N1CC1CCCCC1,14.3
16,c1ccc(Cn2nnnc2CN2CCN(c3ncccn3)CC2)cc1,9.33
17,O=C(NCCCn1ccnc1)/C(=C\c1ccc(Br)cc1)NC(=O)c1ccccc1,-82.1
18,O=C(CSCc1cccc(Br)c1)NC1CC1,5.7
19,CCN(CC)CCNC(=O)C1c2ccccc2Oc2ccccc21.Cl,11.2
20,CCc1cccc(NC(=S)N(CCCOC(C)C)C2CCN(C(C)=O)CC2)c1,10
21,COc1cccc(NC(=S)N2CCc3cc(OC)c(OC)cc3C2)c1,10.4
22,CCN(CC)c1ccc(C(=O)OCC(=O)N(C)Cc2ccccc2)cc1,0.0425
23,COc1ccccc1C(=O)O[C@H]1[C@H](Cc2ccccc2)NS(=O)(=O)[C@H]2C[C@@H]3C=C[C@]12O3,15.1

row,SMILES,"hERG current change (%, negative = inhibition) at 1uM [%]"
1,CCOC(=O)c1sc(NC(=O)C(CC)OC(=O)c2ccco2)nc1C (centres unmarked),4.4
2,CCn1c(=O)c([N+](=O)[O-])c(NCC(O)c2ccccc2)c2ccccc21 (centres unmarked),13.1
3,O=C1CC(c2ccccc2)CC(=NCCO)/C1=C(\O)CCCN1C(=O)c2ccccc2C1=O (centres unmarked),-10.8
4,Cc1ccccc1NC(=O)C(C)OC(=O)CCC(=O)N(CC(C)C)c1c(N)n(CC(C)C)c(=O)[nH]c1=O (centres unmarked),-0.648
5,CNS(=O)(=O)c1ccc(NS(=O)(=O)c2ccccc2F)cc1,12.7
6,Brc1ccc(C2=Nn3c(nnc3-c3n[nH]c4c3CCC4)SC2)cc1,9.48
7,COc1ccccc1N1CC(C(=O)OCc2nc(N)nc(Nc3ccccc3)n2)CC1=O (centres unmarked),7.72
8,Nc1cc(Cl)nc(N/N=C/c2ccccc2[N+](=O)[O-])n1,12.1
9,Cc1ccc(C(=O)NCC(=O)OCC(=O)c2c(N)n(C)c(=O)n(C)c2=O)s1,8.15
10,COc1ccc(NC(=O)Cc2nc3ccccc3[nH]2)cc1,-10.1
11,Cl.O=C(NCCN1CCCC1)C(c1ccccc1)c1ccccc1,1.04
12,N#CC(C#N)=Cc1cc2ccccc2nc1N1CCOCC1,15.6
13,Cl.O=C(CN1CCN(c2cccc(C(F)(F)F)c2)CC1)Nc1cccc(C(F)(F)F)c1,9.79
14,O=C1C2C(C(=O)N1c1ccncc1)C1C=CC2C12CC2 (centres unmarked),4.31
15,CCOC(=O)C1=C(N)OC2=C(C(=O)CC(C)(C)C2)C1c1ccco1 (centres unmarked),-7.98
16,CCCCSc1nnc(CNC(=O)C23CC4CC(CC(C4)C2)C3)n1Cc1ccccc1,1.35
17,O=C(CC1C(=O)NCCN1Cc1cccc(F)c1)NCCCN1CCCC1=O (centres unmarked),1.69
18,COc1ccc(OC)c(NC2c3ccccc3C(=O)N2Cc2ccc3c(c2)OCO3)c1 (centres unmarked),2.8
19,Cc1cc(C)c(CSc2ncc(-c3ccc([N+](=O)[O-])cc3)[nH]2)c(C)c1,2.47
20,Cc1ccc(C(O)c2nccn2C)o1 (centres unmarked),12.2
21,O=S(=O)(/N=C(\c1ccccc1F)N1CCCCC1)c1ccccc1,2.46
22,Cc1cc(NC(=O)CSc2ccc(F)cc2)no1,10.9
23,Cc1ccc(S(=O)(=O)N2CCCC2C(=O)NC2=NCCS2)cc1 (centres unmarked),11.6

row,SMILES,"hERG current change (%, negative = inhibition) at 1uM [%]"
1,CCO[C@@H]1OC(C(=O)O)=C[C@H](c2ccc(Br)cc2)[C@H]1CCCO,16.9
2,COc1ccc(N2CCN(C(=O)c3cccs3)CC2)cc1,10.3
3,COc1ccccc1N1CCN(C(=O)c2cn(C)c3ccc(S(=O)(=O)N4CCOCC4)cc3c2=O)CC1,13.1
4,CC(=O)Nc1cccc(NC(=O)Cc2nc(-c3ccccc3)sc2-c2ccc(C)cc2)c1,12.4
5,N#Cc1nc(-c2ccccc2F)oc1NCCc1ccccc1,12.2
6,Cc1cc(=O)c2n(Cc3ccc(Cl)cc3)nc[n+]2[nH]1.[Cl-],3.97
7,COC(=O)n1c(=O)oc2ccc(S(=O)(=O)N3CCCCC3)cc21,10.6
8,CCC(=O)Nc1cccc(NC(=O)CSc2nnc(-c3ccc(NS(C)(=O)=O)cc3)n2CC)c1,12.7
9,CN1CCN(CC(=O)NC(=O)NC2CCCCC2)CC1,9.81
10,Cc1ccc(NC(=O)CNCc2ccccc2)c(Br)c1,-0.411
11,CC1(C)CC(NS(=O)(=O)c2ccc(C(C)(C)C)cc2)CC(C)(C)N1,6.9
12,CCCNC(=O)c1cc(S(=O)(=O)N2CCc3ccccc32)ccc1F,0.165
13,COc1cccc(NC(=O)CCS(=O)(=O)c2cc3c(cc2Cl)NC(=O)CO3)c1,9.3
14,O=S(=O)(NCCNS(=O)(=O)c1ccc(F)cc1)c1ccc(F)cc1,-9.15
15,Cn1c(SCC(=O)NNC(=O)c2ccc(Br)cc2)nnc1-c1cccnc1,1.36
16,COc1ccc2c(CN3CC=C(c4ccccc4)CC3)cc(=O)oc2c1,13.1
17,COc1ccc(OC)c(S(=O)(=O)N/N=C(/C)c2c[nH]c3ccccc23)c1,19.7
18,CCOC(=O)c1cc2ccc(OC)c(OC)c2c(=O)s1,10.1
19,Cc1cccc2sc(NC(=O)CNS(=O)(=O)c3ccc(Br)s3)nc12,10.1
20,Cc1cc(Br)c(S(=O)(=O)n2nnc3ccccc32)cc1C,8.45
